Experimental findings from patent US8759392B2, “Amides as inhibitors of human secreted phospholipase A2” (The Regents of the University of California, priority 2008, dated 2014) are described below.

Each structure is given as a SMILES string.

For the test, the system named is spinal cord injury (SCI). Briefly: Spinal cord injury (SCI) in mice. The source says:
FIG. 3 illustrates the assessment of locomotor recovery after SCI.
FIG. 4 illustrates the quantification of tissue and myelin sparing assessed by staining for GFAP and luxol fast blue, respectively, at 28 days after SCI.
FIG. 5 illustrates the quantification of serotonergic fiber sparing and neuronal survival at 28 after SCI.

As for `CCCC[C@H](CCC(=O)O)NC(=O)CCCCCCc1ccccc1` [Compound 9, (R)-4-(7-phenylheptanamido)octanoic acid], the Neuronal survival entry (28 after SCI, sections at 500 μm rostral and caudal to the lesion epicenter) was “promoted greater neuron survival”. In addition, the Serotonergic fiber sparing result (28 after SCI, ventral horns 1 mm caudal to the lesion epicenter) is recorded as “significantly greater serotonergic sparing”. In addition, the “Tissue loss (GFAP staining)” value (28 days after SCI, sections at 100 μm rostral and caudal to the lesion epicenter) is recorded as “significant reduction tissue loss”. Further, under “day 10 to 28 after SCI, p<0.05”, the “Fine locomotor skills, BMS subscores” value was “significant improvement”.
